Laboratory results: PMC4336329 (PLoS ONE, 2015)
In all, about 310,000 compounds went through this assay and about 14,000 (4.5%) showed an effect of 50% or more. Effects have a minus sign here. The list shows a part of the results.

These compounds were tested against human ether-à-go-go-related gene (hERG) potassium channel (human, UniProt Q12809) (assay: primary screen, population patch clamp on CHO cells stably expressing hERG).
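Also: peak tail current of the secondary pulse compared with the same well before compound.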

human ether-à-go-go-related gene (hERG) potassium channel, sequence (Q12809 whole entry, looked up): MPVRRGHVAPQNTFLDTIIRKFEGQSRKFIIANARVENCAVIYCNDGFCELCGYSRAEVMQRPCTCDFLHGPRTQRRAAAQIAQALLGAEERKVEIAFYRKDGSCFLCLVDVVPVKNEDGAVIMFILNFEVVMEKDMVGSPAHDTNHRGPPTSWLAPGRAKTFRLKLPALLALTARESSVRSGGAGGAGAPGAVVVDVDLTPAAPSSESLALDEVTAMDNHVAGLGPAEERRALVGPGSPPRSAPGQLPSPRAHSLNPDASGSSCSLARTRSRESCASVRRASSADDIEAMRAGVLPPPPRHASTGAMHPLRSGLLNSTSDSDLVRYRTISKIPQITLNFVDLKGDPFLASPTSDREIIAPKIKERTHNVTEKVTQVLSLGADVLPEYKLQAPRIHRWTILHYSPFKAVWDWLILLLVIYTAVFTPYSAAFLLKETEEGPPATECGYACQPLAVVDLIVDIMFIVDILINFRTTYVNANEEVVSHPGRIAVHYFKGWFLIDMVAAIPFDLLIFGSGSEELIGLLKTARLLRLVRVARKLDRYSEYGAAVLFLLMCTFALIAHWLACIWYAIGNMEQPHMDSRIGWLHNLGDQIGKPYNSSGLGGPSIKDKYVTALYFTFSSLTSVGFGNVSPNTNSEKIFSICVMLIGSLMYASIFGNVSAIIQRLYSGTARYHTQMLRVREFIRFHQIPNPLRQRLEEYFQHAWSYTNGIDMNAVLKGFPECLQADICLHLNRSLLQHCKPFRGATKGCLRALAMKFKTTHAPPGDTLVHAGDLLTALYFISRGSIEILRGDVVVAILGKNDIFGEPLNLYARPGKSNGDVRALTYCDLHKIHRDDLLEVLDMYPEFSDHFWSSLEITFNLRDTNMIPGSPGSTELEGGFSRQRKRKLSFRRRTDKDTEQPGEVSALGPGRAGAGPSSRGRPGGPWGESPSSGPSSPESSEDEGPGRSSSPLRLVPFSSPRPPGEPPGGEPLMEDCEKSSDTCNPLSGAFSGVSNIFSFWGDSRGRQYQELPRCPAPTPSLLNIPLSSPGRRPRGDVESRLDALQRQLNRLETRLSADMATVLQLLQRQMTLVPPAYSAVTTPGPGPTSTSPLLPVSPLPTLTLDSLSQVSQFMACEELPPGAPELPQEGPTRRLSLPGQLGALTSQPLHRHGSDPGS

Row | SMILES | hERG current change (%, negative = inhibition) at 10uM [%]
1 | COc1cccc(NC(=O)CN(C)C(=O)c2cccc(S(=O)(=O)Nc3ccccc3OC)c2)c1 | -9.41
2 | O=C(Nc1ccc(F)cc1F)N1CCCC(c2nc(-c3ccc(F)cc3)no2)C1 (stereo not shown) | -27.4
3 | Cn1c(=O)c2c(nc(-c3ccccc3)n2C)n(Cc2ccccc2)c1=O | -9.47
4 | CCN(CC(=O)NC1CCCC1)S(=O)(=O)c1ccc(F)cc1 | 5.15
5 | CCS(=O)(=O)Nc1ccc(Cc2ccc(NS(=O)(=O)CC)cc2)cc1 | -7.91
6 | COc1ccccc1NC(=O)CNS(=O)(=O)c1ccccc1 | -6.94
7 | Cc1cccc(C)c1NC(=O)COC(=O)c1cc[n+]([O-])cc1 | -0.504
8 | COc1ccc(C2CCCN2C(=S)Nc2ccccc2C)cc1OC (stereo not shown) | 3.21
9 | CCc1cccc(CC)c1-n1c(-c2cccnc2)n[nH]c1=S | 18.1
10 | CC(=O)Nc1ccc(NC(=O)CCn2nnc3ccccc32)cc1 | -2.54
11 | O=C(CCCCn1c(=O)c2ccccc2n(Cc2ccccc2)c1=O)NC1CCN(Cc2ccccc2)CC1 | -67.9
12 | Oc1cccc(Nc2ccccc2)c1 | 12.1
13 | Cc1cc(C(=O)N/N=C/c2cc([N+](=O)[O-])ccc2O)c2ccccc2n1 | 6.35
14 | CCCCCN1CC(O)=C(c2ccccc2)C1=N | 3.99
15 | COc1cc(CC(=O)OCC(=O)N2C(C)CCCC2C)cc(OC)c1OC (stereo not shown) | 21
16 | CC(=O)c1cccc(NC(=O)c2ccc(N(Cc3ccccc3C)S(C)(=O)=O)cc2)c1 | -13.5
17 | O=C(O)Cc1ccc(NC(=O)C(c2ccccc2)c2ccccc2)cc1 | 34.8
18 | COc1cccc(COC(=O)Nc2ccccc2F)c1 | -13.1
19 | Cc1cc(C)n2c(SCc3cccs3)nnc2n1 | -8.91
20 | C=CCn1c(O)c(C(C)=NCCCn2ccnc2)c(=O)[nH]c1=O | 9.21

Row | SMILES | hERG current change (%, negative = inhibition) at 10uM [%]
21 | CCN1CCCC1CNC(=S)Nc1ccc(C(C)=O)cc1 (stereo not shown) | 5.4
22 | CC(C(O)c1cc(=O)c(OCc2ccccc2)co1)[N+](=O)[O-] (stereo not shown) | 14.5
23 | Cc1ccc(-c2noc(CN(C(=O)C(c3ccccc3)c3ccccc3)C(C)C)n2)cc1 | 9.75
24 | COc1ccc(-c2nn(-c3ccccc3)cc2C(N)=O)cc1OC | 6.12
25 | Oc1c(C=Nc2cccc3nsnc23)ccc2ccccc12 | 23.8
26 | COc1ccccc1N1CCN(C(=O)c2ccc(Br)s2)CC1.Cl | -46.3
27 | Cc1cc(C(=O)N2CCN(c3ccccc3O)CC2)c(C)o1 | -16.9
28 | O=C(CSc1ncn[nH]1)N1N=C2/C(=C/c3ccco3)CCCC2C1c1ccco1 (stereo not shown) | -22
29 | O=C(CCn1nnc2ccccc21)N1CCN(c2ccccc2)CC1 | 0.88
30 | Cc1c(OC(C)C(=O)NC2CC(C)(C)NC(C)(C)C2)ccc2c3c(c(=O)oc12)CCC3 (stereo not shown) | 12.5
31 | Cc1cccc(CN2CCN(CC(=O)NCc3cccs3)C2=O)c1 | -13.8
32 | Cn1c(CNC(=O)c2ccccc2F)nnc1SCC(=O)c1ccccc1 | 6.09
33 | C=CCn1c(-c2csc(-c3ccc(OC)c(OC)c3)n2)n[nH]c1=S | 16.2
34 | COc1ccccc1/C=C/C(=O)NCC(=O)N1CCC(N(C)C2CCCC2)CC1 | -35
35 | Cc1ccc(CS(=O)Cc2ccc(C(=O)NC3CCCC(C)C3C)o2)cc1 (stereo not shown) | -25.8
36 | Cn1nccc1C(=O)N1CCN(c2cccc(C(F)(F)F)c2)CC1 | -4.26
37 | CC(=O)N1CCN(c2ccc(NCc3ccccc3)cc2)CC1 | 5.25
38 | Cc1ccc(C(=O)N/C(=C\c2cn(S(=O)(=O)N(C)C)c3ccccc23)C(=O)N2CCCC2)cc1 | 7.23
39 | CC(C)(C)c1cc(S(=O)(=O)CCc2ccccn2)cc(C(C)(C)C)c1F | -5.4
40 | Cc1ccc(OCC(=O)Nc2ccccc2C(=O)NC2CC2)cc1C | 5.8

Row | SMILES | hERG current change (%, negative = inhibition) at 10uM [%]
41 | Cc1nn(CC(C)C)c(Cl)c1C(=O)N(C)CC(=O)Nc1c(Cl)cccc1Cl | 13.1
42 | COc1ccc(C2=NN(c3nc(C(=O)O)cs3)C(O)(C(F)(F)F)C2)c(OC)c1 (stereo not shown) | 24.1
43 | CC(CC(=O)NCCc1ccc(Cl)cc1)S(=O)(=O)c1ccc2c(c1)NC(=O)CO2 (stereo not shown) | -34
44 | CCNc1nnc(CCn2nc(C)c(Br)c2C)s1 | -0.377
45 | Cc1ccc2c(Cl)c(C(=O)NCc3cccnc3)sc2c1 | -46.4
46 | O=C(NCc1ccc2c(c1)OCO2)c1cc2c(s1)CS(=O)(=O)C2 | 7.44
47 | CNc1cc(F)nc(F)n1 | 16.1
48 | CC1C=CCC2C(=O)N(c3cc(Cl)ccc3O)C(=O)C12 (stereo not shown) | 7.35
49 | COc1cc(CNc2ccc(N3CCN(C(C)=O)CC3)cc2)ccc1OCc1ccc(F)cc1 | -1.25
50 | Cc1oc2c(C)c3oc(=O)c4c(c3cc2c1C)CCCC4 | 3.64
51 | O=C(c1cccc(F)c1)N1CCN(Cc2ccco2)CC1 | 4.78
52 | CC(=O)c1ccc2c(c1)OCCOCCOCCOCCO2 | -49.3
53 | Nc1nnc(SCC(=O)OCc2ccc(F)cc2)s1 | 8.09
54 | Cc1c(N(C)C(=O)C23CC4CC(CC(C4)C2)C3)c(=O)n(-c2ccccc2)n1C | -1.09
55 | CN1CCc2c(n(CC(O)CN(CCO)CCO)c3ccccc23)C1=O.Cl (stereo not shown) | 6.94
56 | COc1ccc(NC(=S)NC(C)C(c2ccccc2)N2CCOCC2)cc1 (stereo not shown) | 7.52
57 | CC(C)(C)C(=O)OCC12CCC(O1)C1(C)C(=O)OCC21 (stereo not shown) | 35.2
58 | COC(=O)NC1CSCC1OC(=O)CCN1C(=O)c2ccccc2C1=O (stereo not shown) | -1.52
